# Test results as given in the supplement of paper PMC10126150.
# Sequences with one replicate were seen in a single cluster, so their values are uncertain.
# Tested on: ATP
# Test: switch fluorescence ratio, 500 uM ATP over buffer (Cy3 cluster intensity, sum of 5 cycles each) (fold (ratio)); higher = stronger signal-on switching upon ATP binding; sequences stand for … in TCGTCGGCAGCGTCAGATGTGTATAAGAGACAGTTTTTTTTTTTTTTTTTTTTTTTTT…TC
# Conditions: aptamer strand: ATP DNA aptamer (quencher-CACCTGGGGGAGTATTGCGGAGGAAGG + anchor), 100 nM annealed; ATP concentration: 500 uM; one replicate
# Method in brief: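 The fluorescence ratio divides summed target-cycle Cy3 intensity by summed buffer-cycle Cy3 intensity for each cluster and is averaged per switch-domain sequence. Cy3-labelled switching-strand clusters on a modified Illumina MiSeq flow-cell were annealed to 100 nM quencher-labelled ATP aptamer, then imaged in selection buffer and again after 15 min with 500 uM ATP at 22 °C. Five such cycles were run, with NaOH stripping and re-annealing between them, and clusters outside 100-1000 RFU were excluded.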
# 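Note: ATP exposure 15 min at 22 °C before imaging.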
row,Sequence,switch fluorescence ratio
1,CATAGGGCCT,0.992
2,CTGCCTAAAA,1.04
3,CAACCCTGG,1.02
4,TGCGTATCGA,0.974
5,TCCACTTTA,1.05
6,GGATGCATGA,1.01
7,TCCATCCCGA,1.15
8,CGTCGTATGC,1.04
9,TGTCCTGGGG,0.983
10,GACTACTTAT,1.02
11,TCGGGACC,0.992
12,TTGTGTTGTT,1.02
13,AGTGGGGT,1.03
14,CGTGCAAGTG,1
15,ATGACGTCGA,1.01
16,TAATGCTCCG,1.14
17,AAATGGACCG,1.01
18,TACGTGGCAG,0.996
19,CCCTAAAGGG,1.29
20,GGGCAGGACC,1.01
21,AGAGCGGACC,1.05
22,GCTTTTCAGA,0.962
23,CTGAGAGTAA,1.13
24,ACCTTCTCGA,1.58
25,CAGGGTGCC,1.06
26,TCACGCGCAA,3.05

row,Sequence,switch fluorescence ratio
1,AGGTCATTAA,0.967
2,GCTGGCAAAT,1.02
3,TAGTTAGGTC,0.991
4,TCGCTTAGTG,1.01
5,CTACATGTAT,1.02
6,AGAGCTAGAG,1.01
7,TGTATGCGTC,0.969
8,GCAAGGTATG,1.06
9,TATAAGGTGG,0.996
10,AGGCGTGAAT,1.05
11,AGGTTCGAGT,0.943
12,AGGATACGTC,0.947
13,TTAACGTAGT,1.01
14,TGAATCAATA,0.995
15,AACAGGTTCG,1.08
16,GTGAGATCTA,0.991
17,GGTGGGAGCG,0.984
18,GACTTCGG,1.01
19,AATACCTGTA,1.06
20,GTCGTAAGTG,0.987
21,AGTGACGGAT,1.04
22,AAGCTTCTCC,1.72
23,TAAACTTGGT,1.01
24,AGCTCAGTTA,0.999
25,CCGGTTCTCG,1.04
26,CTGCTATCTC,1.9

row,Sequence,switch fluorescence ratio
1,TATGGCAGGC,1.17
2,TTATATGAGT,1.05
3,ATGGAGATAT,1.01
4,GATTCAAAAA,1.02
5,AAGTGGCTCC,0.993
6,GAAACGATGG,0.99
7,CGTGATTAT,1.02
8,GGATCCAAAC,1.02
9,GGTTGGCCTT,0.985
10,AGGGTTCCCC,1.03
11,TGGACAACGG,1
12,GAAAATTCTG,0.993
13,TCATTTTCGA,0.979
14,GGAGTCGGTC,0.993
15,AGGTTAGCCT,0.973
16,GTGTTTAGG,0.972
17,CTTGAAGCGG,1.02
18,TGGGTTTT,1.01
19,TGTTTTCGA,0.992
20,GGTATGCGGG,0.966
21,CAGGCTCTAC,1.1
22,ACGGTTGCTT,1.07
23,ATGAGAATAA,0.988
24,CGTTATAACA,1
25,TCAAGTCTAT,1.15
26,GGCGTCGTCC,0.966

row,Sequence,switch fluorescence ratio
1,ACAGGGTCGC,1.01
2,AGTTATGTCA,0.977
3,CGGGGCTCGG,1.02
4,GGTCGAACAC,0.981
5,CAAGCTCATT,1.01
6,GGAGGTTAAA,0.995
7,TTGGATGTAT,1
8,AGGGTAACCG,1.03
9,CGACGGCTGC,1.48
10,TTGGGACCAG,0.996
11,CATTGGCTGT,0.983
12,TAACGGTGGC,1.06
13,TCAATAGGGA,0.981
14,CGACTGTGGC,1.01
15,TAGCACCGAA,1
16,CTCATTTCTG,0.988
17,CTTAATCGAT,0.993
18,TAGATGGCTG,1.08
19,ATCGTGAATT,0.951
20,TTATACCAGC,1.01
21,GGGTGTGCTA,1.01
22,GGCTACGACG,1.02
23,TAACGAGCCT,1.07
24,GGCTTTTTGC,0.942
25,AGGACATTTC,1.06
26,GGATAGCCTA,0.956

row,Sequence,switch fluorescence ratio
1,TTCTGCCGCG,0.97
2,GAATGTTTCC,0.995
3,TAAAGCTCTG,0.956
4,CCAGGTGTAG,2.68
5,AGACCCTAGC,0.993
6,CGCCTGAGGT,1
7,GGGGTTGCTC,1
8,CAGGCCTTTT,1
9,AAAGACGCAC,1.66
10,GTGTAGAATG,0.988
11,ATGTACACGC,1.12
12,TGCTTCTAGC,1.02
13,AGGATTCAGG,0.988
14,AAAACATCGG,0.992
15,TGTGGCGAGG,0.997
16,GGCAACTGT,1
17,AAGGCTTAAG,1.02
18,AGGTTATTCG,0.984
19,TGGCAAAAAT,0.919
20,GGGCCAAGT,0.996
21,TTTAAGTACC,1.55
22,AGGCATATTC,1.09
23,CCTCGGATTT,1.08
24,CTACTTGCAC,1.26
25,CGATTAGGGT,1.02
26,CTACTCGTGG,0.973

row,Sequence,switch fluorescence ratio
1,TCGGACTTGC,1
2,TGCCACCGGG,1.05
3,ACCATTTAAT,1.03
4,GTTCGCCGTT,0.954
5,CCATGGACTT,1.03
6,ATTTCTGGCA,1.02
7,ATTTCGTACA,0.993
8,GCCGGCGAAA,0.98
9,TGTCCAGTG,1.23
10,GGGCCTTAGA,0.961
11,CAGCCATAAT,1.05
12,CTATAGCTGA,1.07
13,CCCTTGTGTA,0.982
14,CTTATATGG,1.04
15,GGGGCGCACA,1
16,GCGTCAATCC,2.67
17,CCCCTTATCG,1.02
18,TATTTGCAC,0.988
19,AAGTGAGCCG,1.03
20,GATGACACGG,0.998
21,TGTTAGACAG,1
22,ATAAGCCTCT,0.975
23,CCGGTCTTCA,1.02
